In the supplement of paper PMC11417369:
± gives the standard deviation of the averaged measurements. The list shows a part of the results.

test system: PfAP2-G AP2 domain (GST-tagged); assay: gcPBM binding intensity (ln(normalized median fluorescence intensity)); higher = stronger DNA binding
Summary of the method: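 Binding intensity is defined as the maximum Masliner-normalised natural-log median intensity across replicate spots for either probe orientation. It was measured on an Agilent 4 × 180k array of primer-extended double-stranded 36-bp intergenic genomic probes and negative controls, to which GST-tagged P. falciparum DNA-binding domains made in E. coli were applied for 1 h in 1× PBS with 1% milk, 0.2 mg/ml BSA, 0.5% salmon testes DNA and 0.03% Triton X-100. Detection was by Alexa488 anti-GST antibody and scanning at 488 nm.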

Point of comparison: “ATTTTTAATATTATTACACACACTAATAAAAAAAAA [CACACA_site8265]”, “gcPBM binding intensity (ln)” value 10.1 ± 0.38. Against it:
- TTTTTTTTTTTTTATTGTACAAAGGTATAAAATAAT [XGTACX_site2396] — within error, 10.9 ± 0.68
- TATATAACATAATATACACACATTATGTGCGTAATT [CACACA_site4073] — within error, 10.15 ± 0.085
- GTATATCATTTTGGGGTGCTTAAAAATAATGAATAC — within error, 10.7 ± 0.57
- TATAGATAAGAATATGCACACATTTTATTTTTTTTT [CACACA_site1982] — within error, 9.79 ± 0.28
- TTGTAATATCTTGTCACACATATATATATATATATA [CACACA_site4937] — the same, 10.1 ± 0.26
- ATATATTTAATATTCACACATAATTATTTTTACTCT [CACACA_site5438] — within error, 9.59 ± 0.48
- ATATAATGATAATATTGTACATGTTATATTTCAATA [XGTACX_site8645] — within error, 10.9 ± 0.6
- AAACATTAAAATAACTCACACATTTTTCTAGTCTTC [CACACA_site4612] — within error, 9.75 ± 0.14
- TTTTTAATTTATTAAGAAGTAAAGAATAACTCTTTT [TGCATGCA_negctrl_site101] — lower, 9.55 ± 0.042
- AATATATTTTTATATTGTACAAAAGAAAAAAAATAT [XGTACX_site1689] — within error, 10.9 ± 0.64
- CATATAATATTTGAAACTATATATAAATATAAGGTA [TGCATGCA_negctrl_site19] — within error, 9.81 ± 0.057
- GTATTATCTTTTAATAGTACATATTTTTTTGAAACA [XGTACX_site4050] — within error, 11 ± 0.65
- TATATCCATATTGTATGTACACATATAATACCAATG [XGTACX_site7230] — higher, 11.5 ± 0.77
- AGTTTTCCATGTTAATGTACTTAACAATACCATAAT [XGTACX_site209] — within error, 11.2 ± 0.81
- ATTTATTCATAGACAACAAGAAAAAAAAAAAAAATT [CACACA_negctrl_site1168] — within error, 9.94 ± 0.23
- TATTAAATATTCATATGTACATATAGTTTATAAATT [XGTACX_site7455] — within error, 11.1 ± 0.66
- TTTTTTTTTTTTTTTACACACAAATGTATACTATAT [CACACA_site1787] — within error, 9.98 ± 0.36
- AATACATACACAAATACACACACAAATACATACACA [CACACA_site8134] — within error, 10.3 ± 0.38
- ATATATGTATGTTAGACACACATATTATAATATGTT [CACACA_site116] — the same, 10.09 ± 0.021
- AAAACGGATTCTTTATAAATAAATAAATAAATATAA [XGTACX_negctrl_site157] — within error, 9.85 ± 0.071
- AATACATAATAACGTTGTACAAAAATTATAATACAT [XGTACX_site6508] — higher, 11.1 ± 0.55
- ACTATTAAGAATAAAGAAATATGTAATTGTATTTAA [CACACA_negctrl_site516] — within error, 9.78 ± 0.12
- TTTATCAAAAAAAAAAAAAAAAAAAAAAAAAATTGT [CACACA_negctrl_site176] — within error, 9.6 ± 0.17
- TTATGTGCTTTAAAAGTGCATTTTTTTTTTTTTTTT — within error, 10.3 ± 0.28
- TATATGTTTTATAAATGTACATATACTTAAATATTT [XGTACX_site4753] — within error, 11 ± 0.7
- TTATTTGTATCCATTTCACACATTTTATATAGTATC [CACACA_site5989] — within error, 10.3 ± 0.19
- TTTTTTGTTATGCGGGTGCATATAATAATGTGATGA — within error, 10.3 ± 0.42
- TATAAATAAATGTGTACACACATTAAAATCAAACGT [CACACA_site2340] — higher, 11.7 ± 0.96
- AAACATACTTGATGCAGTACACATTATAAGCACATA [XGTACX_site3359] — higher, 11.2 ± 0.62
- TCCTCGCGTAATACTTTTCAAATAAAAAAAATAAAA [TGCATGCA_negctrl_site403] — within error, 10.5 ± 0.48
- ATTAAAAATTAATATAAACACACAAAAATTAATAAA [CACACA_site8019] — within error, 9.915 ± 0.035
- TTTTTTTTTTTTTATTGTACTAGTAGATATATATAC [XGTACX_site3463] — within error, 10.9 ± 0.82
- CCAATATATACATATATATAGTTATATATATTTCCT [TGCATGCA_negctrl_site38] — within error, 9.69 ± 0.2
- GTGTCAAATTTTATAACACACAAAAGATTATATAAG [CACACA_site4086] — the same, 10.1 ± 0.092
- GGACTTAAATAAAATGGTACAGAATTTATATATATT [XGTACX_site8214] — within error, 10.9 ± 0.56
- ATATATGTATATGTGTGTACATATATGTTTATTATT [XGTACX_site6043] — higher, 11.3 ± 0.77
- TTTTAAAAATTAAAAAAATTAAATGTAAAAAAATGA [CACACA_negctrl_site861] — within error, 9.9 ± 0.18
- ATTTAACAACTTCAAACACACAATATATATATATAT [CACACA_site2093] — within error, 10.3 ± 0.57
- AATTCAAATATAAATACACACACATAGCTACAAAAT [CACACA_site9386] — within error, 10.035 ± 0.007
- AAATATATATGTGGGGGTACTAATAAAAAAACCCCT [XGTACX_site2657] — within error, 11.3 ± 0.86
- CATAAATTAATAGTCACACACGTATTTTTTATATAT [CACACA_site2526] — within error, 10.4 ± 0.11
- TAGGCGTTTAATAAAAGTACCCACACATATATTATT [XGTACX_site1932] — higher, 11.1 ± 0.54
- TTTATTATCGTTCTCATACACACAAAATATACATAC [CACACA_site2642] — within error, 10.22 ± 0.071
- GAAAAAAGAAAAAAAAGTACATATATTTAATAAGAC [XGTACX_site6912] — higher, 11.4 ± 0.86
- TTATCCATAAAAAAGTGTACGCACTAAAATTGAAAA [XGTACX_site5460] — higher, 11.6 ± 0.99
- TATAATTCATATGAAACACACATTTATTTTAATTAC [CACACA_site3686] — within error, 10 ± 0.23
- TTACACAAACAAATTATGGACACATAAGTAAAAGGA [CACACA_negctrl_site1622] — higher, 11 ± 0.49
- TGAAAAAAAAAAAAAAAAAAAAGAAAAAAAAAAAAA [CACACA_negctrl_site709] — lower, 9.51 ± 0.042
- CATATGTTCATCATAGCACACATATATAAATTACAA [CACACA_site9177] — within error, 10.4 ± 0.15
- CATATATATTTGTTCACACACACACCCAAAAAAAAA [CACACA_site2476] — within error, 10.5 ± 0.38
- CACACCCACAGACACACACACACATATATATATATA [CACACA_site363] — within error, 10.3 ± 0.26
- ATATATATATATATTTGTACATATATACATAAAATT [XGTACX_site359] — within error, 10.8 ± 0.54
- GAAAAAGTTATAAATTGTACTAAATATTAAATATTG [XGTACX_site7890] — within error, 10.8 ± 0.49
- TTTAAAATGGGACTTTGAAAAAAAAAAAAAAAAACA [TGCATGCA_negctrl_site111] — the same, 10.1 ± 0.32
- TATAGGTATGTATGTACACACAAAAAATGGAATATA [CACACA_site7704] — higher, 11.4 ± 0.76
- TATATATATATATATTGTACATAATGTATATATGTT [XGTACX_site3448] — within error, 10.9 ± 0.68
- GTTATTTATAGACACACACACATGCATGCACATATA [CACACA_site6204] — within error, 10.2 ± 0.15
- AAATAAATAAGAAACGCATGCATATATAATATATAA [TGCATGCA_site326] — within error, 9.83 ± 0.057
- AAAAAAAAAAAAAGGTGTACATGCAAAATAAATTCT [XGTACX_site4592] — higher, 11.6 ± 0.93
- GAAATAAAAAGAAATGCATGTAATTTTTTTTTTTTT [TGCATGCA_site928] — lower, 9.415 ± 0.064
- ATAAGTATAAGAATCAGTACACAGTTTCTACATACT [XGTACX_site5834] — within error, 11.2 ± 0.76
- GACTTTTCATTTATAGTGCAAGTTTTTTTTTTTTTT [GTGCAC_site9698] — the same, 10.1 ± 0.23
- ATAAATATAAAAAAATGTACATATAGTAATACATAC [XGTACX_site508] — within error, 11 ± 0.71
- TATATATCATTTAAAACACACAAAAAAAAAAGTTAT [CACACA_site6191] — within error, 9.97 ± 0.071
- TATTATTGTTGTTCATGTACACACTATAATAAAAGC [XGTACX_site8957] — higher, 11.5 ± 0.84
- GAGATAAAATAAAACACACACATATATATATATAAT [CACACA_site5246] — within error, 9.875 ± 0.064
- AATGACTAAATTTAAACACACAAGGGGAGTTTACTT [CACACA_site918] — within error, 9.71 ± 0.15
- ATTAAAACCAATTAAAAAAAATTTATAATGGAAGCA [TGCATGCA_negctrl_site273] — within error, 9.79 ± 0.18
- AAGTTATAAAAATAAAGTACAAAGTAGCTATTTTTT [XGTACX_site3144] — within error, 11.1 ± 0.77
- TTGTATTTTTAAATGACACACACATATATATATATA [CACACA_site8481] — within error, 10.2 ± 0.39
- AATAAATAAGCACATACACACATACATACATACATA [CACACA_site6075] — the same, 10.12 ± 0.092
- ATATGTAAAGAAAAGTAAACACTAATTTTAAACAAT [CACACA_negctrl_site11] — within error, 9.995 ± 0.007
- TATATATATGTGCAGTGTACTTTTTTTTTCTGTAAG [XGTACX_site3424] — higher, 11.5 ± 0.92
- TTTTTTTTAATTGTGATACGTATATTATTTTTTGAT [TGCATGCA_negctrl_site318] — within error, 10.4 ± 0.39
- GAGAAGACATTACACAGTACCCAGGAAATCTACGGA [XGTACX_site1993] — within error, 10.6 ± 0.43
- TTATTCAGAAAAAAAAAAAAAAAAAAAAAAAAAAAA [CACACA_negctrl_site1662] — lower, 9.6 ± 0.11
- ATATATATATATATATGTACTTAATATTTCTTATTT [XGTACX_site6206] — within error, 11 ± 0.76
- TCGACAAATGTATATACACACATTTGTAACATAAAT [CACACA_site560] — within error, 10.03 ± 0.014
- TATAAAGGTGAAATTTGTACATAGTCATTTTTTAAT [XGTACX_site4811] — within error, 10.7 ± 0.41
- TGATTAAAAGAGGGAAAAAAAAAAAAAAAAAAAAAA [CACACA_negctrl_site896] — within error, 9.62 ± 0.25
- TGACGAAAAAAAAGGGTGCTTAGTATAACTTTAAAG — within error, 10.03 ± 0.035
- TTCTTTTTTAAACACACACACACAAGAAAATATATA [CACACA_site5680] — within error, 10.4 ± 0.33
- TATATTATTATATATTGTACTTTTTATATTTGCATT [XGTACX_site2978] — higher, 11.2 ± 0.67
- TACACTTGTAATTGCGTGCACGAAGGATATATATAT — within error, 10.4 ± 0.27
- TATGTATATTTTTTTGTGCACATATATATATATATA — within error, 10.4 ± 0.35
- TATGAATATCTATACACACACATATATATACTCACT [CACACA_site1597] — within error, 9.85 ± 0.14
- CAAAGATATATAAACACACAAATATAACATATATAC [CACACA_site7395] — within error, 9.93 ± 0.057
- TATATTATTAATTAAGCACACATTATTTTTATAATA [CACACA_site3982] — within error, 9.91
